This note sets out measurements from the antibiotic and cytotoxicity screens of Wong et al. (2023).

The subject of one experiment is HSkMC. Put plainly: cytotoxicity call (relative viability < 0.9). Conditions: 10 µM.
The test system of another experiment is HepG2. Put plainly: cytotoxicity call (relative viability < 0.9). Conditions: 10 µM.
The test system of another experiment is S. aureus RN4220. Put plainly: growth inhibition call (relative growth <= 0.2). The note with it: 50 µM.

Some of the results follow.

As to `C[C@@H]1CCCCO[C@@H](CN(C)C(=O)NC2CCCCC2)[C@H](C)CN([C@H](C)CO)C(=O)c2cc(NS(=O)(=O)c3ccccc3)ccc2O1`, the cytotoxicity call in the experiment with HSkMC and with HepG2 was “inactive” in each case. The growth inhibition call in the experiment with S. aureus RN4220 was “inactive”.

Regarding `C[C@H]1CN([C@@H](C)CO)S(=O)(=O)c2ccc(C#Cc3cccnc3)cc2O[C@@H]1CN(C)C(=O)Nc1ccc2c(c1)OCO2`, the cytotoxicity call with HSkMC and in the experiment on HepG2 was “inactive” in each case. For the same molecule, the growth inhibition call in the experiment on S. aureus RN4220 was “inactive”.

Regarding `C[C@@H]1CCCCO[C@H](CN(C)C(=O)CCCN(C)C)[C@@H](C)CN([C@@H](C)CO)C(=O)c2cc(NC(=O)Nc3cccc4ccccc34)ccc2O1`, the cytotoxicity call in the experiment on HSkMC and with HepG2 was “inactive” throughout. Moreover, in the experiment on S. aureus RN4220, the growth inhibition call was “inactive”.

On to `Cc1noc(C)c1NC(=O)Nc1ccc2c(c1)C(=O)N([C@@H](C)CO)C[C@@H](C)[C@H](CN(C)Cc1ccc3c(c1)OCO3)OCCCC[C@H](C)O2`, for which the cytotoxicity call with HSkMC and in the experiment with HepG2 was “inactive” throughout. In addition, in the experiment with S. aureus RN4220, the growth inhibition call is “inactive”.

For the molecule `C[C@@H]1CN([C@H](C)CO)C(=O)c2c(c3ccccc3n2C)-c2ccccc2CO[C@@H]1CN(C)S(C)(=O)=O`, the cytotoxicity call in the experiment on HSkMC and with HepG2 was “inactive” each time. The growth inhibition call in the experiment with S. aureus RN4220 was “inactive”.

As to `C[C@@H]1CN([C@@H](C)CO)C(=O)c2cc(NC(=O)CCCN(C)C)ccc2O[C@@H](C)CCCCO[C@H]1CN(C)CC1CCCCC1`, the cytotoxicity call in the experiment on HSkMC and in the experiment with HepG2 was “inactive” in each case. Further, in the experiment with S. aureus RN4220, the growth inhibition call was “inactive”.

Turning to `COc1ccc(S(=O)(=O)N[C@H]2CC[C@H](CCNC(=O)CN3CCOCC3)O[C@@H]2CO)cc1`, the cytotoxicity call in the experiment with HSkMC and in the experiment on HepG2 was “inactive” throughout. In the experiment on S. aureus RN4220, the growth inhibition call is “inactive”.

For `C[C@@H]1CCCCO[C@@H](CN(C)S(=O)(=O)c2ccc(F)cc2)[C@H](C)CN([C@H](C)CO)C(=O)c2cc(NC(=O)CCC(F)(F)F)ccc2O1`, the cytotoxicity call in the experiment with HSkMC and in the experiment with HepG2 was “inactive” in each case. In addition, the growth inhibition call with S. aureus RN4220 is “inactive”.

As to `Cc1noc(C)c1NC(=O)Nc1cccc2c1O[C@H](CN(C)C(=O)Nc1cccc3ccccc13)[C@H](C)CN([C@@H](C)CO)C2=O`, the cytotoxicity call with HSkMC and with HepG2 was “inactive” each time. For the same molecule, the growth inhibition call in the experiment with S. aureus RN4220 was “inactive”.

Turning to `C[C@H]1CN([C@@H](C)CO)C(=O)Cc2cc(NC(=O)Cn3cnnn3)ccc2O[C@H]1CN(C)S(C)(=O)=O`, the cytotoxicity call with HSkMC and in the experiment with HepG2 was “inactive” each time. Moreover, in the experiment on S. aureus RN4220, the growth inhibition call was “inactive”.

`CCCN(C)C[C@@H]1OCCCC[C@H](C)Oc2ccc(NC(=O)Cc3ccccc3)cc2C(=O)N([C@@H](C)CO)C[C@@H]1C`: the cytotoxicity call in the experiment on HSkMC and in the experiment on HepG2 was “inactive” throughout. Further, the growth inhibition call with S. aureus RN4220 was “inactive”.

With `CC(C)(C)[S@](=O)N1Cc2cc(C(=O)NCc3ccc4c(c3)OCO4)nc(-c3cccc(-c4ccncc4)c3)c2[C@@H]1CCO`, the cytotoxicity call with HSkMC and in the experiment with HepG2 was “inactive” throughout. Besides, the growth inhibition call with S. aureus RN4220 was “inactive”.

Regarding `FC(F)(F)C(Cl)Br` (stereo unspecified), the cytotoxicity call with HSkMC and with HepG2 was “inactive” each time. The growth inhibition call with S. aureus RN4220 is “inactive”.

Take `C#CCCCCCCCCCCC[C@H](O)C[C@H](O)COC(C)=O.C=CCCCCCCCCCCC[C@H](O)C[C@H](O)COC(C)=O`: the cytotoxicity call with HSkMC and with HepG2 was “inactive” in each case. Moreover, the growth inhibition call with S. aureus RN4220 is “inactive”.

Turning to `C[C@@H]1CN([C@H](C)CO)C(=O)Cc2cc(NC(=O)CCN3CCOCC3)ccc2O[C@H]1CN(C)C(=O)Nc1ccc(F)cc1`, the cytotoxicity call with HSkMC and in the experiment with HepG2 was “inactive” throughout. Further, the growth inhibition call in the experiment with S. aureus RN4220 is “inactive”.

`C[C@H](CO)N1C[C@H](C)[C@H](CN(C)Cc2ccc(Cl)c(Cl)c2)OCCCC[C@H](C)Oc2ccc(NC(=O)c3ccccc3)cc2C1=O`: the cytotoxicity call with HSkMC and in the experiment on HepG2 was “inactive” each time. For the same molecule, in the experiment on S. aureus RN4220, the growth inhibition call was “inactive”.

As to `Cc1ccc(-c2nn[nH]n2)n1C`, the cytotoxicity call in the experiment on HSkMC and in the experiment on HepG2 was “inactive” throughout. Further, the growth inhibition call with S. aureus RN4220 was “inactive”.

For `CC(C)C(=O)NCc1nnnn1-c1ccccc1`, the cytotoxicity call in the experiment with HSkMC and in the experiment on HepG2 was “inactive” in each case. Besides, the growth inhibition call in the experiment on S. aureus RN4220 was “inactive”.

Take `C[C@H](CO)N1C[C@H](C)[C@@H](CN(C)C(=O)C2CCCCC2)OCCCC[C@H](C)Oc2ccc(NC(=O)Cc3ccccc3)cc2C1=O`: the cytotoxicity call in the experiment on HSkMC and in the experiment with HepG2 was “inactive” each time. Moreover, the growth inhibition call with S. aureus RN4220 was “inactive”.

On to `COc1ccc(S(=O)(=O)N(C)C[C@@H]2Oc3cc(C4=CCCC4)ccc3S(=O)(=O)N([C@H](C)CO)C[C@H]2C)cc1`, for which the cytotoxicity call in the experiment on HSkMC and in the experiment on HepG2 was “inactive” in each case. The growth inhibition call in the experiment with S. aureus RN4220 is “inactive”.

As to `C[C@@H]1CCCCO[C@H](CN(C)C)[C@H](C)CN([C@@H](C)CO)C(=O)c2cc(NC(=O)Nc3cccc4ccccc34)ccc2O1`, the cytotoxicity call with HSkMC and with HepG2 was “inactive” in each case. For the same molecule, the growth inhibition call in the experiment with S. aureus RN4220 is “inactive”.

With `CCn1cc(-c2ccc3ccccc3n2)c(=S)c2ccccc21`, in the experiment on HSkMC, the cytotoxicity call is “inactive”. For the same molecule, the cytotoxicity call with HepG2 was “active”. The growth inhibition call in the experiment on S. aureus RN4220 is “inactive”.

For the molecule `CCC[C@@H](O)C#Cc1cnc2c(c1)C(=O)N([C@H](C)CO)C[C@H](C)[C@H](CN(C)S(=O)(=O)c1ccc(OC)cc1)O2`, the cytotoxicity call in the experiment with HSkMC and with HepG2 was “inactive” in each case. The growth inhibition call in the experiment on S. aureus RN4220 is “inactive”.

For the molecule `C[C@H]1CN([C@@H](C)CO)C(=O)c2cccc(NS(=O)(=O)c3ccc(F)cc3)c2O[C@H]1CN(C)Cc1ccncc1`, the cytotoxicity call in the experiment with HSkMC and in the experiment on HepG2 was “inactive” each time. Moreover, the growth inhibition call in the experiment with S. aureus RN4220 is “inactive”.

`COc1ccc(NC(=O)Nc2ccc3c(c2)C(=O)N([C@H](C)CO)C[C@H](C)[C@H](CN(C)CC2CC2)OCCCC[C@H](C)O3)cc1`: the cytotoxicity call in the experiment on HSkMC (human skeletal muscle cells) and with HepG2 was “inactive” throughout. In the experiment on S. aureus RN4220, the growth inhibition call is “inactive”.

`C[C@H](O)[C@H](O)[C@@H](O)[C@@H](O)/C=N/NC(=O)c1ccc(C(=O)NO)cc1`: the cytotoxicity call with HSkMC and in the experiment with HepG2 was “inactive” in each case. Also, in the experiment on S. aureus RN4220, the growth inhibition call is “inactive”.

As to `Cc1noc(C)c1NC(=O)N(C)C[C@@H]1Oc2ccc(NC(=O)CCN3CCOCC3)cc2CC(=O)N([C@H](C)CO)C[C@H]1C`, the cytotoxicity call in the experiment with HSkMC and in the experiment with HepG2 was “inactive” each time. For the same molecule, the growth inhibition call in the experiment with S. aureus RN4220 is “inactive”.
